# About 18,000 (5.8%) of roughly 310,000 compounds were called active. This list was built around the results that the source calls inconclusive (neither active nor inactive); the mix of calls is not that of the screen. Calls come from the whole dose curve; as a rule, active = well fitted inhibition curve with a large enough effect; inconclusive = small, poorly fitted or top-dose-only effect, or another doubt; inactive = no such curve, though single readings can be large or run the other way. No potency is given beside an inconclusive call; the fits are too rough.
# Experiment: Primary qHTS for delayed death inhibitors of the malarial parasite plastid, 48 hour incubation
# Conditions: P. falciparum luciferase growth in erythrocytes; series mostly up to 28.7 µM; activity change, negative = inhibition: at the top concentration
# Procedure, shortened: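 Parasite viability was followed by luminescence of a genomically integrated firefly luciferase. Cultures held 0.1% parasitemia at 2% hematocrit (final), incubated under 5% CO2 at 37 C.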
# % is set by controls: 0 for no effect and ±100 for the full control effect; potency is the fitted concentration of half-maximal effect; tags give direction and shape of the fitted curve.
SMILES,"activity change, negative = inhibition",Potency
CC1CCC(NC(=O)COC(=O)C2=NN(c3ccccc3)C(=O)CC2)CC1 (stereo not given),inactive: -2.55%,
Fc1ccc(C2c3cccn3CCN2C(=S)Nc2cccc(F)c2)cc1 (stereo not given),,"inconclusive [inhibitor, single point]"
O=C(N/N=C/c1ccc2c(c1)OCCO2)c1ccncc1,inactive: 3.67%,
CC1CCCCN1CC(=O)Nc1ccc2c(c1)OCO2 (stereo not given),inactive: 3.85%,
CCOC(=O)c1c(C)n(C)c2ccc(OC)c(NC(=O)CN3CCN(C(=O)c4ccco4)CC3)c12,,active: 5.22 µM
COc1ccc(O)c(-c2nc(N)nc(N)n2)c1,inactive: -0.583%,
O=C(c1ccc2c(c1)OCO2)N1CCC2(CC1)Oc1ccc(Cl)cc1C(=O)C21CC(c2cccnc2)=NO1 (stereo not given),,active: 11.7 µM
COc1ccc(C2C(C(=O)N3CCC(C(N)=O)CC3)CC(=O)N2c2ccc(OC)cc2)cc1 (stereo not given),,"inconclusive [inhibitor, partial curve]"
CC(=O)Nc1ccc(NC(=O)CSc2nnc(-c3cccs3)n2C)cc1,inactive: 7.18%,
Cc1cc(NC(=O)CSc2nnc(-c3ccc(S(=O)(=O)N4CCCC4)cc3)n2C)no1,,"inconclusive [inhibitor, single point]"
CC(NCc1ccc(Cl)cc1Cl)C(O)c1ccccc1 (stereo not given),,active: 1.04 µM
COc1ccc(CN(C(=O)COc2ccc(C)c(C)c2)C2CCS(=O)(=O)C2)cc1OC (stereo not given),inactive: 1.41%,
O=C(CCNC(=O)c1ccccc1Cl)NCC(c1ccco1)N1CCCC1 (stereo not given),inactive: -25.4%,
Cc1ccc(S(=O)(=O)Cn2nnnc2C(C(C)C)N2CCN(Cc3ccco3)CC2)cc1 (stereo not given),,active: 10.4 µM
COc1ccccc1N(C)S(=O)(=O)c1ccc(Cl)c(C(=O)NNC(=O)c2ccccc2O)c1,inactive: 34.4%,
COc1ccc(NS(=O)(=O)c2ccc3ccccc3c2)c2ncccc12,,active: 2.94 µM
Clc1ccccc1CN(Cc1ccco1)Cc1nnnn1C1CCCC1,,active: 7.38 µM
Clc1ccc2c(c1)C(C1=NCCN1)c1ccccc1CS2 (stereo not given),,"inconclusive [inhibitor, partial curve]"
O=Cc1[nH]c2ccccc2c1N(C(=O)CCl)c1ccc([N+](=O)[O-])cc1,,"inconclusive [inhibitor, single point]"
CNc1nc(-c2cccs2)cc(C(F)(F)F)c1C#N,inactive: 21.1%,
CC(C)CCn1nnnc1C(c1ccc(F)cc1)N1CCN(C(=O)c2ccco2)CC1 (stereo not given),,"inconclusive [inhibitor, single point]"
CCOc1cccc(CNCCO)c1OCc1ccc(Cl)cc1Cl,,"inconclusive [inhibitor, single point]"
C=CCn1cc(C(=O)NCc2ccco2)c(=O)c2cc(S(=O)(=O)N3CCCCCC3)ccc21,,"inconclusive [inhibitor, single point]"
O=C(Cc1cccs1)Nc1ccc(F)cc1F,inactive: 8.42%,
CCOC(=O)N1CCN(S(=O)(=O)c2ccc3c4c(cccc24)C(=O)N3)CC1,,"inconclusive [inhibitor, partial curve, poor fit]"

SMILES,"activity change, negative = inhibition",Potency
COc1ccc(C[C@H]2CN3C(=NC[C@H]3C)N2CCNC(=O)CCC2CCCCC2)cc1,,"inconclusive [inhibitor, single point]"
CCC(C)NCCCOc1ccc(Cl)cc1C(C)(C)C (stereo not given),inactive: 6.62%,
COc1cccc(C(=O)Nc2cc([N+](=O)[O-])ccc2N2CCN(C)CC2)c1,,"inconclusive [inhibitor, partial curve, poor fit]"
CCCCC(=O)OCc1nc2ccccc2s1,inactive: 395%,
Cc1c(Cl)cccc1NC(=O)Cc1ccc([N+](=O)[O-])cc1,,"inconclusive [inhibitor, partial curve]"
CCc1ccc(C(=O)OCC(=O)N(CCOC)c2c(N)n(Cc3ccccc3)c(=O)[nH]c2=O)cc1,,"inconclusive [inhibitor, single point]"
CCC1C(=O)NCCN1C(=O)c1ccc2nc(Cc3ccc(OC)cc3)oc2c1 (stereo not given),inactive: -17.4%,
CCc1c(O)cc(=O)n(-c2ccccc2)c1-c1ccccc1,inactive: -5%,
CCOC(=O)c1nnn2c1nc(N1CCCCC1)c1ccccc12,,"inconclusive [inhibitor, partial curve]"
COc1ccc2oc(C(=O)NCc3cc(OC)c(OC)cc3OC)c(C)c2c1,,"inconclusive [inhibitor, partial curve]"
CC1SC(c2ccccc2)N(CC(O)c2ccc([N+](=O)[O-])cc2)C1=O (stereo not given),,active: 11.7 µM
CCN(CC)C(=O)c1ccc(N(Cc2ccccc2)S(C)(=O)=O)cc1,inactive: 47.3%,
Cc1cc(C(=O)Nc2ccc3c(c2)OCCO3)ccc1[N+](=O)[O-],inactive: 260%,
O=C(Nc1ccc2c(c1)OCO2)N1CCN(c2ccc(F)cc2)CC1,inactive: 9.01%,
NC(=O)C1CCN(C(=O)c2ccc3c(=O)n(Cc4ccco4)c(SCC(=O)c4ccc(F)cc4)nc3c2)CC1,,"inconclusive [inhibitor, full curve, poor fit]"
CCOC(=O)C1(Cc2ccccc2C(F)(F)F)CCN(Cc2ccc(COC)o2)CC1,,"inconclusive [inhibitor, single point]"
COC(=O)c1ccc(COc2ccc(/C=N/O)cc2OC)o1,inactive: -68.4%,
CCN(CCNCC(O)COc1ccccc1C(C)C)c1cccc(C)c1 (stereo not given),,active: 3.29 µM
CCOc1ccccc1N1CCN(Cc2cccc(OC)c2OC)CC1,inactive: -1.43%,
COc1cc(OC)cc(-c2c(-c3cccs3)c3cc(Br)ccc3n2C)c1,,"inconclusive [inhibitor, partial curve, poor fit]"
O=C(Nc1ccccc1N1CCOCC1)c1csc2c1CCCC2,,"inconclusive [inhibitor, single point]"
O=C(Nc1cccc(C(F)(F)F)c1)c1ccc(N2CCNCC2)c([N+](=O)[O-])c1,,active: 2.62 µM
COc1ccc(C2C(C(=O)N3CCCCC3)CC(=O)N2c2ccc(OC)cc2)cc1 (stereo not given),,active: 1.65 µM
Cc1c(C(=O)O)c(-c2ccccc2)nn1-c1ccccc1,inactive: 0.571%,
COc1ccc(C2N(C(=O)c3ccccc3)CCN2C(=O)c2ccccc2)cc1,,"inconclusive [inhibitor, single point]"
